Read counts are not given, so values of variants with three or more changes are uncertain.
B1: CPEB3 Ribozyme (parent)
chain: UAACAGGGGGCCACAGCAGAAGCGUUCACGUCGCAGCCCCUGUCAGAUUCUGGUGAAUCUGCGAAUUCUGCUGUAUAUCUC

Variants of: B1
Assay: self-cleavage, relative activity (ratio to wild type); higher = more cleavage; in vitro, sequencing
In short: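 Barcoded CPEB3 ribozyme mutants, produced by rounds of error-prone PCR, self-cleaved while being transcribed with T7 RNA polymerase for 5 hours at 37°C and during a subsequent 15 min DNase I step before EDTA was added. Sequencing of template-switched cDNA on Illumina gave cleaved and total reads, and DNA sequencing assigned barcodes to variants. Each variant's relative activity is its cleaved/total read fraction divided by the unmutated ribozyme's fraction, averaged across three batches. A variant needed a minimum of 5 reads.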

Row | Variant | self-cleavage
1 | UAACAGGGGGCCACAGUUGGAGCGUACACGUCGCAGCCCCUGUCAGACUCUGGUGAAUCUGCGAAUUCUGCUGUAUAUCUC [C17U A18U A20G U26A U48C] | 0.06
2 | UAACAGGGGGCCACAGUUGAGACGUUCACGUCGCAGCCCCAGUCAGAUUCUGGUGAAUCUGCGAAUUCUGCUGUAUAACUC [C17U A18U A21G G22A U41A U78A] | 0.04
3 | UAACAGGGGGCCACAGUUGAAGCGUCCACGUCGCAGCCCCUGUCAGAUUUUGGCGAAUCUGCGAAUUCUGCUGUAUAUCUC [C17U A18U U26C C50U U54C] | 0.06
4 | UAACAGGGGGCCACAGUAGGAGCGUUCACGUCGCAGCCCCUGUCAGAUUCUGGUGACUCAACGAAUCCUGCCGUAUAUCUC [C17U A20G A57C U60A G61A U67C U72C] | 0.05
5 | UAACAGGGGGCCACAGUAGGAGCGUUCACGUCGCAGCCCCUGUCAGAUUCUGGUGAAUCUGCGAAUUCUGCUGUUUAUCUC [C17U A20G A75U] | 0.56
6 | UAACAGGGGGCCACAGUAGGAGCGUUCACGUCGCAGCCCCUGUCAGAUUCUGAUGAAUCUGCGAUUUCUGCUGUGUAUCUC [C17U A20G G53A A65U A75G] | 0.09
7 | UAACAGGGGGCCACAGUAGGAGCGUCCACGUCGCAGCCCCUGUCUGAUUCUGGUGAAUCUGCGAAUUCUGCCGCAUAUCUC [C17U A20G U26C A45U U72C U74C] | 0.08
8 | UAACAGGGGGCCACAGUAGUAGCGUUCACGUCGCAGUCCCUGUCAGAUUCUGGUGAACCUGUGAAUUCUGCUGUAUAUCUC [C17U A20U C37U U58C C62U] | 0.04
9 | UAACAGGGGGCCACAGUAGAGGCGUACACGUCGCAGCCCCUGUCAGAUUCUGGUGAAUCUGCGAAUUCUGCUGUAUAUCUC [C17U A21G U26A] | 0.21
10 | UAACAGGGGGCCACAGUAGAUGCGUUCACGUCGCAGCCCCUGUCAGAUUCUGGUGAAUCUGCGAAUUCUUCCGUAUAUCUC [C17U A21U G70U U72C] | 0.06
11 | UAACAGGGGGCCACAGUAGAAGCGUUCGCGUCGCAGCCCCUGUCAGGUUCUGGUGAAUCUGCGAAUUCUGCUGUAUAUCUC [C17U A28G A47G] | 0.28
12 | UAACAGGGGGCCACAGUAGAAGCGUUCUCGUCGCAGCCCCUGUCAGAUUCUGGUGAAUCUGCGAGUACUGCUGUAUAUCUC [C17U A28U A65G U67A] | 0.06
13 | UAACAGGGGGCCACAGUAGAAGCGUUCACGUCGCGGCCCCUGUCAGAUUCUGGUGAAUCUGCGAAUUCUGCAGUAUAUCUC [C17U A35G U72A] | 0.77
14 | UAACAGGGGGCCACAGUAGAAGCGUUCACGUCGCGGCCCCUGUCAGAUUCUGGUGAAUCUGCGAAUUCUGCUGUAUAUCAC [C17U A35G U80A] | 0.81
15 | UAACAGGGGGCCACAGUAGAAGCGUUCACGUCGCAGCCCCUGUCGGAUUCUGGUGAAUCUGCGAAUUCUGCUGUAUGUCUC [C17U A45G A77G] | 0.38
16 | UAACAGGGGGCCACAGUAGAAGCGUUCACGUCGCAGCCCCUGUCGGAUUCUGGUGAAUCUGCGAAUUCUGCUGCAUAUCUC [C17U A45G U74C] | 0.44
17 | UAACAGGGGGCCACAGUAGAAGCGUUCACGUCGCAGCCCCUGUCAGUUUCAGGUGAAUCUGCGGAUUCUGCCGUAUAUCUC [C17U A47U U51A A64G U72C] | 0.16

Row | Variant | self-cleavage
18 | UAACAGGGGGCCACAGUAGAAGAGUUCACGUCGCAGGCCCAGUCAGAUUCUGGUGGAUCUGCGAAUUCUGCUGUAUAUCUC [C17U C23A C37G U41A A56G] | 0.14
19 | UAACAGGGGGCCACAGUAGAAGUGUUCACGACGCAGCCCCUGUCAGAUUCUGGUGAAUCUGCGAAUUCUGCUGUAUAUCUC [C17U C23U U31A] | 0.16
20 | UAACAGGGGGCCACAGUAGAAGUGUUCACGACGCAGCCCCUGUCAGAUUCUGGUGAUUCUGCGAAUUCUGCUGUAUAUCUC [C17U C23U U31A A57U] | 0.18
21 | UAACAGGGGGCCACAGUAGAAGCGUUCAUGUCGCAGCCCCUGUCAGAUUCUAGCGAAUCUGCGAAUUCUGCUGUAUAUCUC [C17U C29U G52A U54C] | 0.28
22 | UAACAGGGGGCCACAGUAGAAGCGUUCACGUGGCAGCCCCUGUCAGAUUCUGGUGAAUCUGCGAAUACUGCAGUAUAUCAC [C17U C32G U67A U72A U80A] | 0.1
23 | UAACAGGGGGCCACAGUAGAAGCGUUCACGUCGCAGCCCCUGUCAGAUUCUGGUGAAUAUGCGAAUUCUGCUGUAUAUCCC [C17U C59A U80C] | 0.25
24 | UAACAGGGGGCCACAGUAGAAUCGUUCACGUCGCAGCCCCAGUCAGAUUCGGGUGAACCUGCGAAUUCUGCUGUAUAUCUC [C17U G22U U41A U51G U58C] | 0.26
25 | UAACAGGGGGCCACAGUAGAAGCGUUCACGUCACUGCCCCUGUCAGAUUCUGGUGAAUAGGCGAAUUCUGCUGUAUAUCCC [C17U G33A A35U C59A U60G U80C] | 0.05
26 | UAACAGGGGGCCACAGUAGAAGCGAUCACGUUGCAGCCCCUGUCAGAUUCUGGUGAAUCUGCGAAUUCUACUGUAUAUCUC [C17U U25A C32U G70A] | 0.18
27 | UAACAGGGGGCCACAGUAGAAGCGAUCACGUCGCAGCCCCUGUCAGAUUCUGGUGAAUCUGCGAAUUCUGCUGUAUAUCCC [C17U U25A U80C] | 0.12
28 | UAACAGGGGGCCACAGUAGAAGCGCUCACGUCGAAGCCCCUGUCAGAUUCUGGUGAGUCUGCGAAUUCUGCUGUAUAUCUC [C17U U25C C34A A57G] | 0.04
29 | UAACAGGGGGCCACAGUAGAAGCGCUCACGUCGCAGACCCGGUCAGAUUCUGGUGAAUAUGCGAAUUCUGCUGUAUACCUC [C17U U25C C37A U41G C59A U78C] | 0.15
30 | UAACAGGGGGCCACAGUAGAAGCGCUCACGUCGCAGCCCCUGACAGAUUCUGGUGAAUCUGCGAACUCUGCCGUAUAUCUC [C17U U25C U43A U66C U72C] | 0.4
31 | UAACAGGGGGCCACAGUAGAAGCGUACACGUAGCAGCCCCUGUCAGAUUCUGGUGAAUCUGCGAAUUCUGCUGUAUAUCUC [C17U U26A C32A] | 0.13
32 | UAACAGGGGGCCACAGUAGAAGCGUACACGUCGCAGCCCCUGUCAGAUUCUGGUGAAUCUACGAAUUCUGCUGUAUAUCUC [C17U U26A G61A] | 0.45
33 | UAACAGGGGGCCACAGUAGAAGCGUCCAUGCCGCAGCCCCUGCCAGAUUCAGGUGAAUCUGCGAAUUCUGCUGUAUAUCUC [C17U U26C C29U U31C U43C U51A] | 0.18
34 | UAACAGGGGGCCACAGUAGAAGCGUCCACGUCGCAGCCCCUGUCAGAUUCUGGUGAAUCUGUGAAUUCUGCUGUAUACCUC [C17U U26C C62U U78C] | 0.06

Reference: the RNAGym collection of RNA variant scans (doi:10.1093/nar/gkz1192)
